90 compounds from PMC4336329 (PLoS ONE, 2015) can be followed below.

Screen size: about 310,000 compounds; about 2,200 (0.71%) showed an effect of 50% or more. Effects have a minus sign here. Some of the results follow.

Chain of human ether-à-go-go-related gene (hERG) potassium channel (Q12809 whole entry, looked up): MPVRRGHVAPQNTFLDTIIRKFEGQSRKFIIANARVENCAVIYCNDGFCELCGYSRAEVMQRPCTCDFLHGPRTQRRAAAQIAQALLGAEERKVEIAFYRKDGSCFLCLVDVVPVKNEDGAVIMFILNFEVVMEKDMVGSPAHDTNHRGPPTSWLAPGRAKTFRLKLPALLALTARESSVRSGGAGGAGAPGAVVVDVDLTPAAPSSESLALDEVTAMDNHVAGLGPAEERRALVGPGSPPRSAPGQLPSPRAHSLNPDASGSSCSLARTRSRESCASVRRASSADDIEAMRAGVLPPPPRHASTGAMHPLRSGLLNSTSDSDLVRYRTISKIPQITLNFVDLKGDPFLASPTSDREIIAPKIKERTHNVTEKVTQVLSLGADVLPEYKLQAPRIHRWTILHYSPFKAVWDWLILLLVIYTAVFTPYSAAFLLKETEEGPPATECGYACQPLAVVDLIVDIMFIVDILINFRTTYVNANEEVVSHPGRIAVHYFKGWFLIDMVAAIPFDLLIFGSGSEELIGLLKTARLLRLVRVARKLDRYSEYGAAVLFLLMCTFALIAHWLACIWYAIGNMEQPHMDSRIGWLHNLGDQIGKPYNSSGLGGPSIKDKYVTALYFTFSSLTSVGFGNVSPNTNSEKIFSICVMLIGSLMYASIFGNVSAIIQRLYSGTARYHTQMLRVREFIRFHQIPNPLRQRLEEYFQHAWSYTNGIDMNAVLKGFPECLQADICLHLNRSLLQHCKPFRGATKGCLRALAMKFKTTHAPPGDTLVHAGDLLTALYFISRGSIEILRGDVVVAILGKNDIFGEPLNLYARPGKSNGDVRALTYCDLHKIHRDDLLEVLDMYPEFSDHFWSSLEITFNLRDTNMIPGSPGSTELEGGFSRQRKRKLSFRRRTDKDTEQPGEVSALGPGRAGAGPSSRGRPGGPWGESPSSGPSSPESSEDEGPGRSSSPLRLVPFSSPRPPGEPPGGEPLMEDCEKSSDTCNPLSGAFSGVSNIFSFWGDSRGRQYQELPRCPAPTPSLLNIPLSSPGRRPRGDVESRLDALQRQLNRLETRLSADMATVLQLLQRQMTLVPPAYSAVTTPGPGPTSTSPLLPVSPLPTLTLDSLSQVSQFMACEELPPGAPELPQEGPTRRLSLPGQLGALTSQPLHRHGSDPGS

For the assay, the target named is human ether-à-go-go-related gene (hERG) potassium channel (human, UniProt Q12809). Kind of assay: primary screen, population patch clamp on CHO cells stably expressing hERG. The procedure:
Briefly, Chinese hamster ovary (CHO) cells stably expressing the hERG channel were dislodged from tissue culture flasks and dispensed into PPC plates. […] During the recording, background leak currents were estimated by a 100 ms step to -80 mV from an initial holding potential of -70 mV and subtracted from the subsequent current measurement. The campaign was conducted in two phases using slight differences in recording protocol. In the first phase, the initial voltage pulse used a 100 ms step to -30 mV from a holding potential of -70 mV, a 2 s conditioning step to +25 mV, and a 2 s test step to -30 mV. During the second phase of the screen, the potential during the conditioning step was raised to +45 mV. In both phases of the campaign, a secondary voltage pulse was applied using the same parameters as the second phase initial pulse. The initial and secondary pulses were applied in the absence of compound, and upon application of 1 μM and 10 μM test concentrations. Small molecule effects on hERG current density were quantified by […].
Regarding `COc1cccc(CNC(=O)c2n[nH]c3ccccc23)c1`, the “hERG current change (%, negative = inhibition) at 1uM” value came out at 7.33%. In the case of `C/C(=N\NC(=O)CNc1cccc(Cl)c1C)c1cccs1`, the “hERG current change (%, negative = inhibition) at 1uM” value came to 9.86%. As to `Cc1cc(C)c(SCCc2ccncc2)c(C)c1`, the “hERG current change (%, negative = inhibition) at 1uM” value is given as 17.9%. The same measure for `CC(=O)c1cccc(NC(=O)CSc2nnc(C(C)N(C)C)n2Cc2ccccc2)c1` (stereo not drawn): 3.65%. The same measure for `CC1CCCCC1NC(=O)CN1CCN(S(=O)(=O)c2ccc(Br)s2)CC1` (stereo not drawn): -1.28%; for `CS(=O)(=O)N1CCc2cc(-c3csc(NCC4CCCO4)n3)ccc21` (stereo not drawn): -10.8%. Under `COc1cccc(NC(=O)Nc2nc(-c3ccc(OC)c(OC)c3)cs2)c1` stands 8.69%. Take `CC(=O)c1cccc(N(CC(=O)NC2CCCCC2)C(=O)Cn2nnc(-c3ccccc3)n2)c1`: the “hERG current change (%, negative = inhibition) at 1uM” value came out at 4.53%. With `COc1ccccc1NC(=S)NNC(=O)c1ccc(Cl)cc1Cl`, the “hERG current change (%, negative = inhibition) at 1uM” value was determined as 2.04%. `Cc1nc([N+](=O)[O-])cn1CC(=O)c1ccccc1`: the “hERG current change (%, negative = inhibition) at 1uM” value was 8.38%. On to `Cc1ccc(NC(=O)Nc2ccc(F)cc2)cc1Cl`, for which the “hERG current change (%, negative = inhibition) at 1uM” value is on record as 12.9%. In the case of `CC(C)(C)c1ccc(C(=O)NCC(=O)N/N=C/c2ccccc2OCC(=O)O)cc1`, the “hERG current change (%, negative = inhibition) at 1uM” value is listed as 5.81%. With `CC(C)c1nc(C(=O)N2CCCC(CCC(=O)N(C)CCc3ccccn3)C2)cs1` (stereo not drawn), the “hERG current change (%, negative = inhibition) at 1uM” value was 7.47%.

For the compound `COc1cc(C(Nc2ccccn2)c2c(NC(=O)c3ccco3)sc(C)c2C)cc(OC)c1OC` (stereo not drawn), the “hERG current change (%, negative = inhibition) at 1uM” value was 11.9%. For `CCOC(=O)Cc1csc(NC(=O)c2ccc(Br)s2)n1`, the “hERG current change (%, negative = inhibition) at 1uM” value was found to be 3.65%. Turning to `Cc1c(NC(=O)C(C)Oc2ccc(Br)cc2Cl)c(=O)n(-c2ccccc2)n1C` (stereo not drawn), the “hERG current change (%, negative = inhibition) at 1uM” value is on record as -1.81%. The same measure for `CCCC(C)C(=O)OCC(=O)Nc1ccc(Br)cc1` (stereo not drawn): 15.6%. As to `CC(/C=N/NC(=O)c1cccc([N+](=O)[O-])c1)=C\c1ccccc1`, the “hERG current change (%, negative = inhibition) at 1uM” value was -1.74%. On to `COc1ccccc1C(=O)NCCC(=O)Nc1ccncc1`, for which the “hERG current change (%, negative = inhibition) at 1uM” value worked out at 9.89%. In the case of `Cc1cccc(NC(=O)CSc2nnc(-c3cc(C)[nH]n3)n2N)c1`, the “hERG current change (%, negative = inhibition) at 1uM” value is listed as -6.53%. As to `Fc1ccc(N2CCN(c3ccc4c(C(F)(F)F)cc(C(F)(F)F)nc4n3)CC2)cc1`, the “hERG current change (%, negative = inhibition) at 1uM” value is -3.42%. With `Cc1ccc(CSc2nc3c(c(N(C)C)n2)CCCC3)cc1`, the “hERG current change (%, negative = inhibition) at 1uM” value came to 6.28%. Under `Fc1ccccc1/C=N/Nc1nn[nH]n1` stands 12.3%; under `O=C(CSc1cccc2cccnc12)OCC(=O)c1ccccc1`, 10.7%. Regarding `COc1ccc(NC(=S)N(CCN2CCOCC2)C2CCN(C(C)=O)CC2)cc1Cl`, the “hERG current change (%, negative = inhibition) at 1uM” value turned out to be 13.5%. Under `Cc1ccc(-c2nnc(N3CCOCC3)c3ccccc23)cc1S(N)(=O)=O` stands 9.29%; under `O=C(NCc1cccnc1)c1ccccc1[N+](=O)[O-]`, 4.95%; under `O=c1c(-c2ccccc2)n[nH]c2ccccc12`, 5.62%. Under `Cc1ccc(C(=O)N2CC(C)CC(C)C2)cc1S(=O)(=O)N1CCCCC1` (stereo not drawn) stands -1.96%. Consider `COc1ccc(NC(=O)c2cccs2)cn1`, for which the “hERG current change (%, negative = inhibition) at 1uM” value was 9.61%. Under `N#C/C(=C\c1ccc(O)cc1)c1nc2ccccc2o1` stands 12.5%; under `CC1=CC2=NC(=O)/C(=C/c3cccs3)C(=N)N2O1`, 15.4%; under `CC(=O)Oc1ccc(-n2c(=O)c3ccccc3c3ccccc3c2=O)cc1`, 5.02%. The same measure for `c1cnc(Oc2ccc(-c3nnco3)cc2)cn1`: 15.2%. Under `Cn1c(N)c(C(=O)N/N=C/c2ccccc2)sc1=S` stands 17.7%; under `CCCc1nc2ccccc2c(=O)n1NC(=O)c1c(O)c2ccccc2n(C)c1=O`, 13.4%; under `CCOC(=O)Cn1c(=O)n(CC(=O)OCC)c2ccccc21`, 8.05%.

`Cc1ccc(NC(=O)CSCC(=O)O)cc1`: the “hERG current change (%, negative = inhibition) at 1uM” value was 13.4%. In the case of `O=C(NCCCN1CCCCC1)c1ccc2c(c1)NC(=O)C(N1CCCCC1)S2` (stereo not drawn), the “hERG current change (%, negative = inhibition) at 1uM” value amounted to 11.5%. The same measure for `COc1ccc(NC(=O)CS(=O)(=O)c2cn(CC(=O)N(C(C)C)C(C)C)c3ccccc23)c(OC)c1`: 0.846%. Under `Cc1ccc(C2(C)NC(=O)N(CC(=O)NCc3ccccc3Cl)C2=O)cc1` (stereo not drawn) stands 15.4%; under `CC(=O)c1cccc(Nc2nc(=O)c3cccnc3s2)c1`, 3.65%. In the case of `CC(C)Oc1ccc(S(=O)(=O)N2CCCCC2)cc1NC(=O)CN1C(=O)NC(C)(C2CC2)C1=O` (stereo not drawn), the “hERG current change (%, negative = inhibition) at 1uM” value is given as -1.38%. Under `Cc1ccc(S(=O)(=O)N2CCN(C(=O)CC(C)(C)C)CC2)cc1` stands 16.1%; under `O=C(O)COCC(=O)Nc1ccc2c(c1)oc1ccccc12`, 15.3%. Turning to `O=C(NCCCN1CCOCC1)c1ccc(Sc2ccccc2Cl)c([N+](=O)[O-])c1`, the “hERG current change (%, negative = inhibition) at 1uM” value is listed as -1.38%. Consider `O=C1C(=Nc2cccc(Cl)c2)CC(c2ccc(Cl)cc2)N1c1cccc(Cl)c1` (stereo not drawn), for which the “hERG current change (%, negative = inhibition) at 1uM” value came to 13.4%. Turning to `O=C(Cc1ccccc1)OCCNC(=O)c1ccc[nH+]c1.[Cl-]`, the “hERG current change (%, negative = inhibition) at 1uM” value is given as -0.498%. With `CC(C)(C)NC(=O)C(c1ccco1)N(C(=O)c1ccc(CN2CCOCC2)o1)c1ccccc1` (stereo not drawn), the “hERG current change (%, negative = inhibition) at 1uM” value amounted to 0.327%. The same measure for `NC(=O)c1ccc(NC(=O)COC(=O)c2ccc(Cl)nc2)cc1`: 3.44%; for `Cc1cc(C)cc(NC(=O)CSc2nnc(-c3ccncc3)o2)c1`: -0.778%. With `O=C(c1ccco1)C(O)c1ccco1` (stereo not drawn), the “hERG current change (%, negative = inhibition) at 1uM” value came to 12.6%. For `O=C(NCCCn1ccnc1)c1csc2ccccc12`, the “hERG current change (%, negative = inhibition) at 1uM” value is -9.4%. For `CCN(CC)S(=O)(=O)c1ccc(OC)c(NC(=O)c2cc3c(=O)n4ccccc4nc3s2)c1`, the “hERG current change (%, negative = inhibition) at 1uM” value was determined as 10.6%. Under `O=C(COc1ccc(F)cc1)N1CCC(Cc2ccccc2)CC1` stands 9.54%; under `CN(CC(=O)Nc1ccc(F)cc1)C(=O)COC(=O)c1cc([N+](=O)[O-])ccc1N1CCOCC1`, -11.6%; under `CCCS(=O)(=O)N1CCN(Cc2ccccc2OCC)CC1`, -4.4%. As for `O=C(NCCCNc1ccc([N+](=O)[O-])cc1)C(F)(F)F`, the “hERG current change (%, negative = inhibition) at 1uM” value is on record as 6.61%. Under `Cc1cc(C(=O)OCC(=O)Nc2ccc(F)c(F)c2F)c(C)o1` stands 11.4%. `CCc1c(C)c2ccc(O)c(CN(C)C)c2oc1=O`: the “hERG current change (%, negative = inhibition) at 1uM” value is given as 7.22%.

`CCc1c(C)nc2ncnn2c1N1CCC(C(=O)Nc2ccc(C)cc2)CC1`: the “hERG current change (%, negative = inhibition) at 1uM” value is reported as -17.4%.

For `CCCCCCCCCCS(=O)(=O)N/N=C/c1ccc(O)cc1`, the “hERG current change (%, negative = inhibition) at 1uM” value is given as 13.3%. The same measure for `CCCc1cc(=O)oc2cc(OCC(=O)Nc3cc(C)on3)ccc12`: 8.03%. For the compound `CC(C)(Oc1ccc(Cl)cc1)C(=O)Nc1ncccn1`, the “hERG current change (%, negative = inhibition) at 1uM” value is reported as 6.6%. The same measure for `CN(Cc1ccccc1)c1nc2c(c(=O)[nH]c(=O)n2C)n1CCCSc1ncccn1`: -0.0086%; for `CC(OC(=O)c1ccco1)C(=O)Nc1ccc(Cl)cn1` (stereo not drawn): 5.93%; for `Cc1cc(=O)c2c(C)ccc(C)c2[nH]1`: 15.8%. As for `O=C(COC(=O)CSc1ccccc1)NNC(=O)c1ccc([N+](=O)[O-])cc1`, the “hERG current change (%, negative = inhibition) at 1uM” value was 7.62%. The same measure for `CC(C)C1N(S(=O)(=O)c2ccccc2)CCN1S(=O)(=O)c1ccccc1`: -8.58%.

Consider `Cc1n[nH]c(C)c1S(=O)(=O)N1CCCC(C(=O)Nc2nccs2)C1` (stereo not drawn), for which the “hERG current change (%, negative = inhibition) at 1uM” value amounted to 7.73%.

As for `CCOc1ccc(N(CC(=O)NC2CCCCC2)S(=O)(=O)c2ccc(C)cc2)cc1`, the “hERG current change (%, negative = inhibition) at 1uM” value was 3.38%.

For `O=C(NCCCN1CCOCC1)c1csc2c1CCCC2`, the “hERG current change (%, negative = inhibition) at 1uM” value was found to be 9.09%. Under `CCn1nc(C)c(CNC(=O)CCc2nnc(-c3ccc(C(C)=O)s3)o2)c1C` stands 7.29%; under `O=C(Cn1cnc2ccccc2c1=O)Nc1nnc(SCc2ccccc2)s1`, 2.31%. Take `ClCCCc1cn(C[C@H]2CC[C@@H]([C@@H]3CC[C@H](Cn4cc(CCCCl)nn4)O3)O2)nn1`: the “hERG current change (%, negative = inhibition) at 1uM” value was -12.4%. The same measure for `CCOC(=O)c1cc(C(C)C)sc1NC(=O)COC(=O)CCS(=O)(=O)c1ccccc1`: 6.88%; for `CS(=O)(=O)N1CCN(c2ccccc2NC(=O)c2ccc(Cl)cc2)CC1`: 5.76%. Under `COc1ccc(NC(=O)CCS(=O)(=O)c2ccc(Cl)cc2)cc1` stands 4.13%; under `Cc1ccc(OCC(=O)Nc2cccc3c2CCCC3)cc1C`, 7.4%. For the compound `O=C(NNC(=O)c1ccc(Cl)nc1)c1ccncc1`, the “hERG current change (%, negative = inhibition) at 1uM” value worked out at 4.5%.

As for `COc1ccc(Cl)cc1-c1nc(-c2ccncc2)no1`, the “hERG current change (%, negative = inhibition) at 1uM” value was 12.6%. In the case of `CC(=O)NC(c1ccccc1)c1cc(Cl)c2cccnc2c1O` (stereo not drawn), the “hERG current change (%, negative = inhibition) at 1uM” value is given as 7.95%. The same measure for `Cc1c(Cl)cccc1Nc1ccccc1C(=O)O`: 14.7%. In the case of `COc1ccccc1COCC(O)CN(Cc1ccco1)Cc1ccccc1O` (stereo not drawn), the “hERG current change (%, negative = inhibition) at 1uM” value was 13.1%.

Regarding `N/C(=N\OC(=O)/C=C/c1ccccc1)c1ccccn1`, the “hERG current change (%, negative = inhibition) at 1uM” value was 9.07%.

Take `Cc1ccc(N(C(=O)c2csnn2)C(C(=O)NC2CCCC2)c2ccncc2)c(C)c1` (stereo not drawn): the “hERG current change (%, negative = inhibition) at 1uM” value came out at 1.27%. The same measure for `CCN(C)Cc1c(C(=O)N2CCc3ccccc3C2)nc2ccc(Cl)cn12`: -1.03%; for `O=C(Nc1cc(Cl)ccc1N1CCCC1)C1=COCCO1`: 0.622%; for `CCCCNC(=O)COC(=O)CCC(=O)c1ccc(F)cc1`: 5.72%. The same measure for `O=C(O)c1cc(N/N=C/c2ccc3c(c2)OCO3)ccc1Cl`: 11.7%.
